The list shows a part of the results. Shown are side measurements of this screen, not its main read-out; they come without a call.
Key:
Experiment in all cases: Primary Screen for Target Class Profiling of Small Molecule Inhibitors of Methyltransferases
[1] = biological target: Glycine N-methyltransferase (Homo sapiens) (UniProt Q14749); conditions: purified enzyme, MTase-Glo SAH luminescence; measured here: GNMT inhibition; at 40 µM; stronger effect = lower value
Summary of the method: (§1)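 Each enzyme was assayed with SAM and its substrate. SAH formation detected by MTase-Glo luminescence; single-point 40 uM screen[…].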

[2] = biological target: Guanidinoacetate N-methyltransferase (Homo sapiens) (UniProt Q14353); conditions: purified enzyme, MTase-Glo SAH luminescence; measured here: GAMT inhibition; at 40 µM; stronger effect = lower value
Summary of the method: as §1

[3] = biological target: Histamine N-methyltransferase (Homo sapiens) (UniProt P50135); conditions: purified enzyme, MTase-Glo SAH luminescence; measured here: HNMT inhibition; at 40 µM; stronger effect = lower value
Summary of the method: as §1

[4] = biological target: Nicotinamide N-methyltransferase (Homo sapiens) (UniProt P40261); conditions: purified enzyme, MTase-Glo SAH luminescence; measured here: NNMT inhibition; at 40 µM; stronger effect = lower value
Summary of the method: as §1

[5] = biological target: Phenylethanolamine N-methyltransferase (Homo sapiens) (UniProt P11086); conditions: purified enzyme, MTase-Glo SAH luminescence; measured here: PNMT inhibition; at 40 µM; stronger effect = lower value
Summary of the method: as §1
On the % scale 0 is the no-effect control and ±100 the full control effect.

Compound | activity change, negative = inhibition [1] | activity change, negative = inhibition [2] | activity change, negative = inhibition [3] | activity change, negative = inhibition [4] | activity change, negative = inhibition [5]
CCC(C)N1C(=O)c2ccc(-c3ccco3)n2CC1(C)C(=O)NC1CCCCCC1 (stereo unspecified) | -1.41% | 0% | 1.82% | -2% | -4.12%
Cc1cc2[nH]c(=O)[nH]c2cc1S(=O)(=O)N1CCCCC1 | -1.88% | -2.31% | -9.47% | -13.4% | -16.4%
Cc1cc(C)cc(Nc2nc(C)cc3nn(CC(=O)Nc4cccc(Cl)c4)c(=O)n23)c1 | 1.99% | 0% | -1.34% | -2.1% | -2.73%
CCOC(=O)N1CCC(NCCNC(=O)c2ccccc2C)CC1 | -4.99% | -5.25% | 8.17% | -16.5% | -1.18%
Cc1ccc(NC(=O)N2CCC3(CC2)CC(Cc2nc(-c4ccccc4)no2)CCO3)cc1C (stereo unspecified) | -8.06% | -10.1% | -7.68% | -12.1% | -5.87%
CCOC(=O)c1cccc(NS(=O)(=O)c2ccc3c(c2)NC(=O)CC(=O)N3)c1 | -2.9% | 4.14% | 2.82% | 1.92% | -0.885%
Cc1ccc(Nc2nnc(-c3ccc([N+](=O)[O-])cc3)o2)cc1Cl | -5.59% | -9.5% | 1.54% | -14.7% | -14.7%
CC(C)OCCCNC(=O)CCc1nnc2n(Cc3ccc(F)cc3)c(=O)c3ccccc3n12 | -11.5% | -2.24% | -8.51% | -0.769% | -11.1%
C=C(C)C(=O)O[C@H]1CC2=CC(C/C(C)=C\[C@H]3OC(=O)C(=C)[C@H]13)OC2=O (stereo partly specified) | -1.52% | -9.72% | -2.89% | -18.6% | 0.294%
CC1CCCCC1NC(=O)C1(C)Cn2c(ccc2-c2ccco2)C(=O)N1CCc1ccccc1 (stereo unspecified) | -1.2% | 3.06% | 4.66% | -4.17% | 2.7%
CN(C)CCCNc1c2ccccc2nc2c1[nH]c1ccccc12 |  | 8.7% |  | -34.2% | -11.6%
CCOc1ccccc1NS(=O)(=O)c1ccc2[nH]c3c(c2c1)CCCC3 | 5.1% | 0.26% | 2.64% | -1.74% | 2.1%
CC(=O)Nc1ccc(CN2CCC3(C2)C(=O)N(C)c2ccccc23)cc1 (stereo unspecified) | -7.86% | -4.44% | -6.27% | -10.3% | -8.91%
Cc1oc(C(=O)O)cc1COc1ccc2c(-c3ccccc3)cc(=O)oc2c1 | -22.7% | 0% | 3.83% | -4.2% | -6.24%
COc1ccc(-c2cc(C(=O)N3CCCC3)ccn2)cc1F | -3.32% | 1.67% | 1.3% | -7.15% | 17.9%
CCOc1ccc(CN(CCOC)C(=O)C2CC3(CCNCC3)CN2)cc1 (stereo unspecified) | -3.93% | -9% | -2.99% | -11.8% | -20.7%
Nc1nc2c(nc(Sc3ccc(Cl)cc3)n2[C@@H]2O[C@@H]3COP(=O)(O)O[C@H]3[C@H]2O)c(=O)[nH]1 | 1.37% | 6.68% | 9.92% | -8.14% | 3.09%
O=C(Nc1nc2ccccc2s1)c1ccc2c(c1)OCCN(CCC(F)(F)F)C2 | -6.75% | -4.35% | -2.58% | -2.33% | -8.53%
CC(CN1C(=O)c2cc3occc3n2CC1(C)C(=O)NC1CCCC(C)C1C)c1ccccc1 (stereo unspecified) | -0.682% | -6.14% | 5.26% | -0.641% | -1.07%
CCc1ccc(N2C(=O)c3cc(-c4cccs4)nn3CC2(C)C(=O)NC2CCCCC2)cc1 (stereo unspecified) | 1.43% | 0.525% | 8.13% | 6.32% | 1.27%

Compound | activity change, negative = inhibition [1] | activity change, negative = inhibition [2] | activity change, negative = inhibition [3] | activity change, negative = inhibition [4] | activity change, negative = inhibition [5]
O=c1[nH]c2ccccc2n1C1CCN(S(=O)(=O)c2ccc3c(c2)OCCO3)CC1 | -6.15% | 1.22% | 5.44% | -7.12% | -12.6%
Oc1ccc(O)cc1 | -40.3% | 14.9% | 10.4% | -2.23% | 5.22%
Cc1cccc(-c2nnc3n(CCc4ccccc4)c(=O)c4ccccc4n23)c1 | -1.14% | -51.4% | 2.77% | -5.48% | -7.77%
COCC(=O)N[C@@H]1CN(Cc2cn(C)nc2C)C[C@H]1CO | -1.3% | 3.38% | 0.894% | 4.37% | -1.68%
CCn1nc(C)c(CNC(=O)c2cc(COc3ccc4ncccc4c3)on2)c1C | -11.1% | -2.63% | -2.65% | -10.4% | -3.82%
CN1CCN(c2cccc(Nc3nc4c(-c5ccc(S(C)(=O)=O)cc5)cccn4n3)c2)CC1 | -6.93% | 4.67% | -6.83% | -12.2% | -12.5%
COc1ccc(CN2CCCC3(C2)CN(C)C(=O)O3)cc1C(=O)O (stereo unspecified) | -2.83% | -2.67% | -1.46% | -7.63% | -0.403%
COc1ccccc1Nc1ccnc(N2CCCC(C(=O)NCc3cccc(Cl)c3)C2)n1 (stereo unspecified) | -4.61% | -0.277% | 0.084% | -8.59% | -7.45%
C=C(C)C(=O)O[C@H]1[C@H]2C(=C)C(=O)O[C@@H]2C[C@@H](C)[C@@H]2O[C@@H]2C(=O)[C@](C)(O)[C@@H]1OC(=O)C(=C)C | -1.49% | -0.082% | 11% | -13% | -6.29%
CC/C=C\CC1C(=O)CCC1CC(=O)OC (stereo unspecified) |  | 10.1% |  | -5.1% | 6.31%
CNCC[C@H](Oc1ccc(C(F)(F)F)cc1)c1ccccc1 | -6.57% | 1.48% | -4.26% | -15.1% | 2.37%
COc1cccc(Cn2nc3n(C(C)C)c(=O)c4ccc(C(=O)NC(C)C)cc4n3c2=O)c1 | -2.2% | 0.629% | 7.32% | -4.46% | 3.61%
Cc1cc2[nH]c(=O)[nH]c2cc1S(=O)(=O)Nc1cccc(F)c1 | 13% | 0% | 11.5% | -1.63% | 3.62%
CCOCCCNc1nc2c(S(=O)(=O)c3ccc(C)c(C)c3)nnn2c2ccccc12 | -1.51% | 2.08% | 1.58% | 2.84% | -1.55%
Cc1ccc(NC(=O)CC2CCN(S(C)(=O)=O)C2)cc1 (stereo unspecified) | -2.63% | -0.986% | -0.011% | -1.94% | 1.28%
C[S+](=O)([O-])CCn1ncc2cc(OCC3CCN(Cc4ccccc4)CC3)ccc21 | -9.99% | -11.9% | -39.5% | -32% | -8.81%
CC1(C(=O)NC2CCCCCCC2)Cn2c(cc3sccc32)C(=O)N1c1cccc(Cl)c1 (stereo unspecified) | -1.96% | 1.22% | 3.65% | 1.9% | -3.54%
CC1(C)C(O)CCC2(C)C1C(O)C=C1COC(=O)C12O (stereo unspecified) | 0% | -2.57% | -1.91% | -13% | -1.93%
CCC(C)NC(=O)Cn1nc2n(C(C)C)c(=O)c3ccc(C(=O)NC4CCCC4)cc3n2c1=O (stereo unspecified) | 5.32% | 0% | 2.96% | 0.36% | 0.437%
OCCc1ccc(O[C@@H]2O[C@H](CO)[C@@H](O)[C@H](O)[C@H]2O)c(O)c1 | -1.36% | -5.18% | 4.64% | -16.5% | 0.421%

From PubChem BioAssay AID1745853 (National Center for Advancing Translational Sciences (NCATS), 2022)
